Among the data in article PMC4081100 are binding signal values, retold here.

The entries are a selection whose mix differs from that of the whole data set. For some assays here: At the low end of the ranking the order means little. The list shows a part of the results. For some assays here: The source does not settle which construct or isoform was used.

Experiment in all cases: universal protein binding microarray (PBM)
What all share (details): transcription factors of Arabidopsis thaliana; high values mean tight binding; most listed sequences are background and not binding sites; double strand, one strand shown

Assay [1] addresses T1, GST-ANAC092(1-176) (UniProt Q9FKA0).
T1 sequence: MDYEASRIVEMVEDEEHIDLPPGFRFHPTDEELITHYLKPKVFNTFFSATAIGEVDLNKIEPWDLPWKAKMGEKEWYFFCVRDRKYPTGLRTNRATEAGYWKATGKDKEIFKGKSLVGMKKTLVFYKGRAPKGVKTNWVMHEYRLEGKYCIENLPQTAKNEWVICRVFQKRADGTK

The target of assay [2] is GST-NTL6(1-168) (UniProt Q9SCK6).
Assay [3] concerns the target T2, GST-ANAC019 NAC domain (UniProt Q9C932).
T2 sequence: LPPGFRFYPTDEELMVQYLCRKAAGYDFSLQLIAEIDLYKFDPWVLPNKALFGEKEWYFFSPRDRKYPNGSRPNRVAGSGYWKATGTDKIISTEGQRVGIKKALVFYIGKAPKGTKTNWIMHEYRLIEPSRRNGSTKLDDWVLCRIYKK

Assay [4] deals with T3, GST-ANAC092(1-285) full length (UniProt Q9FKA0).
T3 sequence: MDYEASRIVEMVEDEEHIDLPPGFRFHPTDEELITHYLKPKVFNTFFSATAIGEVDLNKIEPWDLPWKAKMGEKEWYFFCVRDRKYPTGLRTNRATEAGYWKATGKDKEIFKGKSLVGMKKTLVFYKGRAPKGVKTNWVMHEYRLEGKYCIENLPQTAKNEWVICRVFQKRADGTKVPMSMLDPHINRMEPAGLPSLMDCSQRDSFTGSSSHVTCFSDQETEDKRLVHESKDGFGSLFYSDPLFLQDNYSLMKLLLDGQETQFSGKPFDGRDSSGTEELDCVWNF

Assay [5] has as its target T4, GST-NAP(1-166) (UniProt O49255).
T4 sequence: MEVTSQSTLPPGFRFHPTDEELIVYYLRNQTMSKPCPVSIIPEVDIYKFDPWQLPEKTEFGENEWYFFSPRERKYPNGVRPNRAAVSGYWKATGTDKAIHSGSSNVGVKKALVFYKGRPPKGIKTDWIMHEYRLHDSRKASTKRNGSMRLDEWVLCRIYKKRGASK

Assay [6] deals with T5, GST-NTL8 NAC domain (UniProt Q9XIN7).
T5 sequence: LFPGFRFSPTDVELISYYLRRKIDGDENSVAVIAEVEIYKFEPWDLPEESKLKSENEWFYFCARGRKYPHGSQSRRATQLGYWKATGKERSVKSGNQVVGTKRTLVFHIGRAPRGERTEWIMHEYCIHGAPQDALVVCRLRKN

Assay [7] has as its target T6, GST-VOZ2 (Arabidopsis thaliana) (UniProt Q9SLB9).
T6 sequence: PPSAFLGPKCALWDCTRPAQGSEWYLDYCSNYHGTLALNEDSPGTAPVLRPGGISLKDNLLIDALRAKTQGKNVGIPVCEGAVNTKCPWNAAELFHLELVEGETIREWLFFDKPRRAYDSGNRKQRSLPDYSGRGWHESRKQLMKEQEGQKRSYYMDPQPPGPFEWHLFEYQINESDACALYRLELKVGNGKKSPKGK

The target in assay [8] is GST-WRKY1(266-371) (UniProt Q9SI37).
In assay [9] the target is T7, GST-ATAF1 NAC domain (UniProt Q39013).
T7 sequence: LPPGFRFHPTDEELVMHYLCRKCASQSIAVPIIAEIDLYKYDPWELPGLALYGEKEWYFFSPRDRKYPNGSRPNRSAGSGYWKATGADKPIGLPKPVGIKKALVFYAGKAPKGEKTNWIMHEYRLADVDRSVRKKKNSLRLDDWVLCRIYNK

For assay [10], the target named is T8, GST-ANAC055(1-171) (UniProt Q9LDY8).
T8 sequence: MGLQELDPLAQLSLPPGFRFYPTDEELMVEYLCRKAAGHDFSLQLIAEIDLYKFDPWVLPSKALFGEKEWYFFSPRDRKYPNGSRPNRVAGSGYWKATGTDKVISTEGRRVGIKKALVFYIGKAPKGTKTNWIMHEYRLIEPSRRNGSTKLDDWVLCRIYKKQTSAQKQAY

Assay [11] concerns the target T9, GST-NST2(1-184) (UniProt Q9M274).
T9 sequence: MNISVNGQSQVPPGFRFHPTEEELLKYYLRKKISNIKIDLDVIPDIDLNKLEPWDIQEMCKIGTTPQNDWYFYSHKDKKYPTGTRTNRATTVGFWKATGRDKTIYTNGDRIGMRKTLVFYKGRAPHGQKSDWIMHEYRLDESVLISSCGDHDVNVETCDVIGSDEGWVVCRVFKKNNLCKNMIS

As to AGTAAGTA, the binding signal in assay [1] is 0.145 E-score; in [2], 0.415 E-score; in [3] it was 0.133 E-score; in assay [4] it was 0.184 E-score; in assay [5], 0.0452 E-score; in [6], -0.0257 E-score. Further, the binding signal was determined as 0.0588 E-score in assay [7] and 0.00622 E-score in assay [8].
Regarding ACGTAAAC, the binding signal in assay [1] was 0.397 E-score; in [2], -0.00688 E-score; in assay [9], 0.321 E-score; in assay [5] it was 0.368 E-score; in [6], 0.0415 E-score; in assay [7], 0.128 E-score. In assay [8], this sequence returned a binding signal of 0.0172 E-score.
Turning to TTAAGTAA, the binding signal in assay [2] is 0.48 E-score; in [3], 0.198 E-score; in assay [10], 0.0996 E-score; in [5] it was 0.0398 E-score; in [7], 0.134 E-score; in [8], -0.0688 E-score.
Turning to ATACACGC, the binding signal in assay [1] is 0.39 E-score; in assay [2], -0.00434 E-score; in assay [5], 0.256 E-score; in assay [6], -0.0286 E-score; in [7], 0.0476 E-score; in assay [8], 0.0204 E-score.
Turning to ACAAGTTA, the binding signal in assay [2] is 0.022 E-score; in [3] it was 0.00787 E-score; in assay [10] it was 0.106 E-score; in [9], 0.162 E-score; in assay [5] it was -0.0978 E-score; in [6] it was 0.0244 E-score. For the same sequence, the binding signal in assay [7] was 0.0301 E-score; in assay [8], -0.065 E-score.
As for CTACGCAA, the results for the binding signal in assay [2], in assay [7] and in assay [8] were -0.0569 E-score, 0.146 E-score and 0.0118 E-score, respectively.
Turning to ATTGAGTA, the binding signal was 0.329 E-score in assay [1]; 0.143 E-score in [3]; 0.176 E-score in assay [10]; 0.129 E-score in [6]; 0.103 E-score in assay [7]; -0.124 E-score in assay [8].
As for AATGCGTA, the binding signal was 0.371 E-score in assay [1]; -0.0301 E-score in assay [2]; 0.0337 E-score in [3]; 0.0991 E-score in [10]; 0.183 E-score in [5]; -0.00112 E-score in assay [6]. For the same sequence, the binding signal in assay [7] was 0.167 E-score; in assay [8], -0.0228 E-score.
For ATGACGTA, the binding signal in [1] is 0.443 E-score; in [2], 0.0683 E-score; in [9] it was 0.374 E-score; in [7] it was -0.052 E-score; in [8], 0.0111 E-score.
For ACACGCAT, the binding signal in [1] is 0.462 E-score; in [2], 0.0235 E-score; in assay [3], 0.346 E-score; in assay [4], 0.468 E-score; in [5], 0.332 E-score; in assay [6], -0.0867 E-score. Further, the binding signal is 0.066 E-score in assay [7] and -0.0484 E-score in assay [8].
For AAAGCAAC, the binding signal in [1] is 0.268 E-score; in assay [3] it was -0.0857 E-score; in assay [9], 0.00722 E-score; in assay [5], -0.155 E-score; in assay [7], 0.0505 E-score; in assay [8], -0.0466 E-score.
With AAGTAAAG, the binding signal in [2] was determined as 0.432 E-score; in [10], 0.168 E-score; in assay [5], 0.0549 E-score; in assay [6], 0.27 E-score; in assay [7], 0.0765 E-score; in assay [8], 0.000705 E-score.
As to CACGCCAA, the binding signal in assay [2] was -0.0669 E-score; in [3] it was 0.185 E-score; in [9], 0.16 E-score; in [4], 0.451 E-score; in assay [6], 0.0657 E-score; in [7] it was 0.138 E-score. In assay [8], this sequence yielded a binding signal of -0.0898 E-score.
GTAGCGTA: the binding signal is 0.111 E-score in assay [2]; 0.0436 E-score in assay [3]; 0.27 E-score in assay [5]; 0.381 E-score in assay [11]; 0.0358 E-score in [6]; 0.288 E-score in assay [7]. Also, the binding signal in [8] is -0.0235 E-score.
For the sequence ACACTCAA, the binding signal was 0.0392 E-score in assay [2]; 0.116 E-score in [3]; 0.07 E-score in [5]; 0.113 E-score in assay [7]; 0.133 E-score in assay [8].
For the sequence ATTTCGTG, the binding signal was -0.00813 E-score in assay [2]; 0.174 E-score in [3]; 0.133 E-score in [5]; -0.0332 E-score in [6]; 0.109 E-score in [7]; -0.0503 E-score in assay [8].
For the sequence CACGTAAC, the binding signal is 0.047 E-score in assay [2]; 0.479 E-score in assay [3]; 0.436 E-score in [9]; 0.242 E-score in assay [6]; 0.0797 E-score in [7]; -0.125 E-score in [8].
Turning to CACGCATC, the binding signal is -0.0123 E-score in assay [2]; 0.291 E-score in assay [10]; 0.309 E-score in assay [5]; -0.0379 E-score in assay [6]; 0.00487 E-score in [7]; -0.0944 E-score in assay [8].
GCAAGCAA: the binding signal is 0.26 E-score in assay [2]; 0.0669 E-score in [10]; -0.0645 E-score in assay [9]; 0.42 E-score in assay [4]; -0.028 E-score in assay [5]; 0.28 E-score in assay [11]. The results for the binding signal in [6], in assay [7] and in assay [8] were 0.0916 E-score, -0.0433 E-score and -0.202 E-score, respectively.
On to CTAAGCAA, for which the binding signal was 0.461 E-score in [2]; -0.023 E-score in assay [10]; -0.0209 E-score in assay [9]; -0.051 E-score in assay [5]; 0.254 E-score in [6]; 0.0371 E-score in assay [7]. The sequence also came in with a binding signal in assay [8] of -0.0224 E-score.
For ATGACGTG, the binding signal in [2] is -0.0151 E-score; in assay [3], 0.311 E-score; in assay [6] it was -0.121 E-score; in [7], 0.0934 E-score; in assay [8], 0.0849 E-score.
For the sequence GCACGCTA, the binding signal in [2] was -0.0984 E-score; in [9] it was 0.0329 E-score; in [5], 0.0433 E-score; in [6] it was -0.0548 E-score; in [7], -0.0751 E-score; in assay [8] it was -0.101 E-score.
Turning to GCGTGTTA, the binding signal is 0.0115 E-score in assay [2]; 0.174 E-score in assay [10]; 0.0415 E-score in assay [6]; 0.121 E-score in assay [7]; -0.107 E-score in assay [8].
For GCGTGTAC, the binding signal was -0.101 E-score in [2]; 0.19 E-score in assay [3]; 0.261 E-score in assay [5]; -0.0891 E-score in assay [6]; 0.0547 E-score in [7]; -0.0659 E-score in assay [8].
Take TGCCGTAA: the binding signal in assay [2] is 0.114 E-score; in assay [9], 0.436 E-score; in assay [11], 0.328 E-score; in [7] it was 0.0353 E-score; in assay [8] it was -0.14 E-score.
With TGCGTAAA, the binding signal in [2] was found to be 0.0301 E-score; in [3], 0.205 E-score; in [10] it was 0.131 E-score; in assay [11] it was 0.291 E-score; in assay [6], 0.0652 E-score; in [7], 0.261 E-score. In assay [8], this sequence gave a binding signal of -0.0164 E-score.
